The text below walks through data of patent US20160152947A1 (BOARD OF REGENTS OF THE UNIVERSITY OF OKLAHOMA, published 2016).

The target in test [1] is MBP-Th-RSPO2-4 Fu1-Fu2 chimera (MBP-Th-RSPO2.22-76-RSPO4.72-138-H6) (human). Description: TR-FRET competition binding to LGR4 ECD. The procedure: (§1) HEK293T cells transfected with TOPFLASH firefly luciferase reporter and Renilla luciferase control plasmids were treated with the indicated concentrations of MBP-Th-RSPO Fu1-Fu2 proteins in 1:6 diluted Wnt3a conditioned media. […] (C) AlphaLISA® luminescent proximity assay (BMG Labtech GmbH, Ortenberg, Germany) for ZNRF3 ECD binding. The indicated concentrations of MBP—Th-RSPO Fu1-Fu2 proteins were incubated with 3 nM Biotin-ZNRF3 ECD. Donor and acceptor beads were at 20 μg/ml each. Data shown for panels A-C are representative of at least three independent experiments, each performed in duplicate. The error bars represent the S.E.M. of the experiment. (D, E, F) Vertical scatter plots showing the pECso, Eₘₐₓ, and pK₁ values obtained from replicate independent signaling and LGR4 binding experiments as in panels A and B. The mean values and error bars representing the S.E.M. of the replicates are denoted.
(§2) The LGR4 ECD binding abilities of the newly purified MBP-Th-RSPO Fu1-Fu2-H₆ proteins were examined in an in vitro LanthaScreen®TR-FRET competition-binding assay (Thermo Fisher Scientific Inc., Rockford, Ill.).

Test [2] addresses MBP-Th-RSPO4-1 Fu1-Fu2 chimera (MBP-Th-RSPO4.21-71-RSPO1.78-145-H6) (human). Description: TR-FRET competition binding to LGR4 ECD. The method, then:
as §1, §2
In general terms: In TR-FRET formats the signal depends on donor and acceptor labels being close together.

B1: MBP-Th-LGR4 LRR1-14 (MBP-Th-hLGR4.23-383-H6) (receptor)
chain: [about 200 residues skipped]SLVVLHLHNNKIRSLSQHCFDGLDNLETLDLNYNNLGEFPQAIKALPSLKELGFHSNSISVIPDGAFDGNPLLRTIHLYDNPLSFVGNSAFHNLSDLHSLVIRGASMVQQFPNLTGTVHLESLTLTGTKISSIPNNLCQEQKMLRTLDLSYNNIRDLPSFNGCHALEEISLQRNQIYQIKEGHHHHHH
notes: range […]; Produced in E. coli; Labeled with amine-reactive terbium chelate in the TR-FRET assay; unlabeled in the AlphaLISA ternary complex assay; also called MBP-Th-LGR4 ECD; LGR4 ECD; not shown: thrombin cut site (Th) linker
Regarding B1, the binding result in test [1] and in test [2] was “binds” each time.
